From EP0109354B1, “Biocidally active mixture” (priority 1982, dated 1984)

Description: Einer 80%igen wässrigen Lösung von Tributyltetradecylphosphoniumchlorid (Vrb. 17) wird bei 30 °C Di-(tributylzinn)oxid (Vrb. 13) zugegeben. Dieses Gemisch wird während 24 h ständig geschüttelt. Danach wird festgestellt, ob sich die gesamte Menge Tributylzinnoxid gelöst hat.
[…] . Dasselbe Resultat wird auch mit einer 40%igen Lösung von (17) erhalten.
Analog Beispiel 1 werden folgende Resultate erzielt (Endkonzentrationen)

| Structure (SMILES) | Endkonzentration der P-Verbindung | Sn-Verbindung in Lösung (Endkonzentration) |
| --- | --- | --- |
| CCCCCCCCCCCCCC[P+](CCCC)(CCCC)CCCC.[Cl-] [Verbindung 17, Tri-n-butyl-tetradecyl-phosphoniumchlorid] | 9,2 Mol-% |  |
| CCC[CH2][Sn]([Cl])([CH2]CCC)[CH2]CCC [Verbindung 3, Tri-n-butylzinnchlorid] |  | 3,8 Mol-% |
